{"source": "the supplement of paper PMC11417369", "note": "± gives the standard deviation of the averaged measurements. The list shows a part of the results."}
{"test_system": "PfAP2-I AP2 domain 3 (GST-tagged)", "assay": "gcPBM binding intensity (ln(normalized median fluorescence intensity)); higher = stronger DNA binding", "summary_of_the_method": "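In this array assay, P. falciparum DNA-binding domains with a GST tag, expressed in E. coli, were applied for 1 h to primer-extended double-stranded 36-bp intergenic genomic probes and negative controls on an Agilent 4 × 180k array. Bound protein was visualised with Alexa488 anti-GST antibody at 488 nm. Binding intensity is the highest Masliner-normalised natural-log median intensity across replicate spots of either probe orientation.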"}
{"sequence": "AAAAAGCAGGATTATACACACAAATATATATATGTT [CACACA_site1077]", "gcPBM binding intensity (ln)": "7.51 ± 0.67"}
{"sequence": "ATATGTTTACGTAAATGTACACGTCAGTATATTTCT [XGTACX_site8199]", "gcPBM binding intensity (ln)": "7.96 ± 0.54"}
{"sequence": "ATATATATATAACATTGTACACACAAAGAAATAATA [XGTACX_site6440]", "gcPBM binding intensity (ln)": "9.01 ± 0.11"}
{"sequence": "TTTTATAATAAGTATGTAAAAATTATATATATATAT [CACACA_negctrl_site711]", "gcPBM binding intensity (ln)": "9.22 ± 0.18"}
{"sequence": "AACTTGTATATATACACACACACACTATCTTTTTTT [CACACA_site8601]", "gcPBM binding intensity (ln)": "7.96 ± 0.81"}
{"sequence": "ATTTTTTTTTTTTTTATTCCCCTTTCGAAAAAAACC [CACACA_negctrl_site1139]", "gcPBM binding intensity (ln)": "8.3 ± 0.54"}
{"sequence": "TCAAATAATAAGTATGCATGCTATATTTATATATAC [TGCATGCA_site920]", "gcPBM binding intensity (ln)": "7.77 ± 0.76"}
{"sequence": "AAACGTACATAATACACACACATGTATACCTATAAA [CACACA_site7051]", "gcPBM binding intensity (ln)": "8.3 ± 0.35"}
{"sequence": "TACATTTTACTTGTTACACACATATAAAATTAACCA [CACACA_site2922]", "gcPBM binding intensity (ln)": "7.82 ± 0.5"}
{"sequence": "AGAAAAAAAAAAAGTACACACATATAATATATATAT [CACACA_site2973]", "gcPBM binding intensity (ln)": "8.885 ± 0.078"}
{"sequence": "AGTTAATGAATAGGCACACATATATCTGTATAAATA [CACACA_site4448]", "gcPBM binding intensity (ln)": "7.95 ± 0.57"}
{"sequence": "ATGAATAAATAGGTCACACACAAATATATATAAATA [CACACA_site2416]", "gcPBM binding intensity (ln)": "7.82 ± 0.59"}
{"sequence": "TTGTTCGATATATGCACACAGTTTTGTTATTTTTCC [CACACA_site4972]", "gcPBM binding intensity (ln)": "9.19 ± 0.37"}
{"sequence": "CACTACACTGTTAATAGTACATATATTTAAAAAAAA [XGTACX_site7371]", "gcPBM binding intensity (ln)": "7.95 ± 0.42"}
{"sequence": "AAAAGGTATAGAAACACACACACGTGAATATAGTTT [CACACA_site1905]", "gcPBM binding intensity (ln)": "7.49 ± 0.87"}
{"sequence": "CACACCCACCAACACACACACAAAAAAAAAAAGAAA [CACACA_site500]", "gcPBM binding intensity (ln)": "8.045 ± 0.021"}
{"sequence": "ATATTTTATTTTAATACACACAAGTTATATAATCAC [CACACA_site780]", "gcPBM binding intensity (ln)": "7.96 ± 0.45"}
{"sequence": "AAAAAAAACGGACACACACACATAAATATATATAAA [CACACA_site4260]", "gcPBM binding intensity (ln)": "8.03 ± 0.042"}
{"sequence": "ACATATGTTTTATGTAGTACTTATTTATTATTATAT [XGTACX_site7528]", "gcPBM binding intensity (ln)": "7.84 ± 0.47"}
{"sequence": "TACAAATTTATATAAAGTACAAAAAATAATAAAAAT [XGTACX_site7355]", "gcPBM binding intensity (ln)": "8.1 ± 0.52"}
{"sequence": "AAAAAAAAAAAAAGTGCACACATAAAAATATGATCT [CACACA_site8090]", "gcPBM binding intensity (ln)": "10.1 ± 0.27"}
{"sequence": "ATATTGTAGATATTGTGTACATATTTTACAACTTTT [XGTACX_site7621]", "gcPBM binding intensity (ln)": "7.61 ± 0.42"}
{"sequence": "TATGTACACCCATATACACACCTCTATAATATATAT [CACACA_site4563]", "gcPBM binding intensity (ln)": "8.38 ± 0.18"}
{"sequence": "ACATCATATTAAGAAAGTACAAAAAGAGAACATATA [XGTACX_site1268]", "gcPBM binding intensity (ln)": "7.98 ± 0.61"}
{"sequence": "AAACAAAATTTATTTCAAAGTTAATAATTTTTATGT [CACACA_negctrl_site232]", "gcPBM binding intensity (ln)": "7.3 ± 0.57"}
{"sequence": "TCATTAAAAACTAAAAGTACTCAATATTATGAACAT [XGTACX_site7807]", "gcPBM binding intensity (ln)": "7.8 ± 0.42"}
{"sequence": "TAAAAAAATAAATATACACACATATATATATATATA [CACACA_site1089]", "gcPBM binding intensity (ln)": "9.44 ± 0.59"}
{"sequence": "TGTAGAAATGGGTGCACACACATATAAAATCTATAT [CACACA_site7224]", "gcPBM binding intensity (ln)": "10.4 ± 0.59"}
{"sequence": "GGATTTATTATATATACACACATACAGATATATATA [CACACA_site5222]", "gcPBM binding intensity (ln)": "7.88 ± 0.38"}
{"sequence": "CATATATATTTGTTCACACACACACTAGAAAAAAAA [CACACA_site5380]", "gcPBM binding intensity (ln)": "8 ± 0.33"}
{"sequence": "ATAAAAAATAAAATAAATAAAAAATATTTACCCTTA [TGCATGCA_negctrl_site396]", "gcPBM binding intensity (ln)": "7.21 ± 0.35"}
{"sequence": "AATATTTTTTAAATGTGTACATAGGTATAGCACACA [XGTACX_site8690]", "gcPBM binding intensity (ln)": "8.93 ± 0.26"}
{"sequence": "AATTATTCTCTTTTCATTTGAACAATATGCTTAAAA [CACACA_negctrl_site995]", "gcPBM binding intensity (ln)": "7.89 ± 0.73"}
{"sequence": "GACTGCACTTTAAGCACACAAATATATTTTTTTTAT [CACACA_site1249]", "gcPBM binding intensity (ln)": "9.58 ± 0.17"}
{"sequence": "ACACATTCGAAAAATTGTACATATATAACAGAATAT [XGTACX_site7106]", "gcPBM binding intensity (ln)": "7.91 ± 0.26"}
{"sequence": "AGTCATATAAATAGTAGTACTGTGTGTGAAGAAAAA [XGTACX_site5056]", "gcPBM binding intensity (ln)": "8.14 ± 0.68"}
{"sequence": "ACAAATATGAGAAATTGTACATATAATAAAATAGTA [XGTACX_site2573]", "gcPBM binding intensity (ln)": "7.64 ± 0.5"}
{"sequence": "ATATTAGTCGAATGATGTACACACATACAAAACATT [XGTACX_site8613]", "gcPBM binding intensity (ln)": "7.95 ± 0.47"}
{"sequence": "ATCAAATTTGGACATGCATGTGTGTGTAAAACCATG [TGCATGCA_site309]", "gcPBM binding intensity (ln)": "8.52 ± 0.41"}
{"sequence": "TTCTTCAATAATAAGTGTACATATGCATACATTATA [XGTACX_site1502]", "gcPBM binding intensity (ln)": "8.12 ± 0.33"}
{"sequence": "AATTAAAAAATTTATGCACACTTTAAAAAAAAAAAA [CACACA_site5962]", "gcPBM binding intensity (ln)": "10.1 ± 0.46"}
{"sequence": "ATAATAAAATAAGAAGCACACAAATATTATATATAA [CACACA_site9319]", "gcPBM binding intensity (ln)": "7.94 ± 0.52"}
{"sequence": "GATATGATATGATATGCATGTAACAAATTTTTTTAA [TGCATGCA_site268]", "gcPBM binding intensity (ln)": "8.37 ± 0.85"}
